The other results are listed elsewhere or left out.
tested on: PfAP2-HC AP2 domain (GST-tagged); assay: gcPBM binding intensity (ln(normalized median fluorescence intensity)); higher = stronger DNA binding
Method in brief: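 Alexa488 anti-GST antibody, scanned at 488 nm, detected GST-tagged P. falciparum DNA-binding domains that had been expressed in E. coli and incubated for 1 h on an Agilent 4 × 180k array. The array carried primer-extended double-stranded 36-bp intergenic genomic probes and negative controls. Binding intensity is the highest Masliner-normalised natural-log median intensity across replicate spots of either orientation of each probe.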

In order of falling “gcPBM binding intensity (ln)” value:
1. CACGCATACAGACACACACACACACGGATATAAATA [CACACA_site6445]  11.6
2. AACAAAAAAACAAACACACACACACGCATATTTATA [CACACA_site7680]  11.2
3. AACACCCACAGACACACACACAAAAATGATTAAAAA [CACACA_site2433]  10.9
4. TATATACTCAGACATACACACAAATAAAAAAACACC [CACACA_site5820]  10.8
5. AAAAACAACACAGATAAATTAACACACACACACATA [XGTACX_negctrl_site588]  10.7
6. TACAAAAAAAAATAAAATACATATATATATATATAT [XGTACX_negctrl_site608]  10.5
7. TGTGTGTGTTCATGGGTGCTTTAATACTATTATAGG [GTGCAC_site9465]  10.3
8. TAATTATATGTATACACACACATACATTTACATAAC [CACACA_site3238]  10.3
9. TTATGTCATAAATGCACACATATACATTGTTTTGAT [CACACA_site646]  9.92
10. TGAACTCATAGGAAAACACACATATGTGTAATATAT [CACACA_site4267]  9.9
11. AAATATAGTATTAAAACACACATTTATATAAAAAGG [CACACA_site1482]  9.86
12. TAAAGTTATATATTATGTACATATTTGTATACATTT [XGTACX_site2516]  9.82
13. ATATAAATAAACAGGTGTACTATAATGTTCATAGTA [XGTACX_site1553]  9.81
14. TACAAATTAATATGTACACACAAATATAAATATGTA [CACACA_site7016]  9.79
15. TATTTGCTACATATATGTACTAAAAACTTTTTGCTT [XGTACX_site2362]  9.79
16. AAGAAAATATAAAATGCACACTATAAATTGTATTTA [CACACA_site4257]  9.79
17. GTAGTAATAAATTAAAGTACAGAATATATTATACTA [XGTACX_site2809]  9.79
18. CAAACAAACAAATATACACACTTTTGTATAAAGTAA [CACACA_site5860]  9.79
19. ATATATATAATAAGTGGTACAAGTTATTCATTAAAT [XGTACX_site7063]  9.77
20. ACAAAAATATTATATTGTACATTATTAGTTCATATT [XGTACX_site6750]  9.77
21. TTTACAGGAAAAAATACACACATTATTTTACCTTAT [CACACA_site2833]  9.76
22. CAATAAAAATTAAAATGTACAAATAAATATAAATAT [XGTACX_site7265]  9.76
23. CAATAAATCGAAATCGTGCACGGACACATGCAGTAG  9.75
24. AATACACATAATACATGTACTCACATTGTTATAACA [XGTACX_site4129]  9.74
25. TACGTTATATACAACTGTACTTGGATAATTATTAAC [XGTACX_site5614]  9.73
26. GAAAATGAAATCCTTGCATGTAAAATTAAAATAGAA [TGCATGCA_site569]  9.71
27. TCTTTAACAAGTTAAACACACATACATAAATACATA [CACACA_site5406]  9.7
28. AGTGTGCTCAGCTTAGCACAAATTGGAATACCATGT [CACACA_negctrl_site367]  9.7
29. TAATTATATATATATGCATGTTATAATTTTTATTTT [TGCATGCA_site78]  9.68
30. CATTTACATGCCAACATGCACTGAACAATCTTTATA [GTGCAC_site9797]  9.68
31. ACAAAACTTTTAAGAACACACAAAAATGTACTATCG [CACACA_site7245]  9.67
32. AATATATTTATATATAGTACTTTTATAATATCGTTT [XGTACX_site6658]  9.63
33. GGGAAAATATTTGGGTGTACAAACAAATTAGCTAGC [XGTACX_site6795]  9.63
34. GATATGATTAACTTATGTTATTCTTGATGATTACGT [CACACA_negctrl_site354]  9.61
35. TTTTTATATAAATAATGTACATTTGGTTTTATTATA [XGTACX_site2125]  9.61
36. TTTTATGAATAATTATGTACATAACAAATGATATAT [XGTACX_site8318]  9.61
37. AAAAGGGAAATAAAATAAAAAAAGAAACATATATAG [CACACA_negctrl_site455]  9.61
38. ATGAATTATAAATATTCACACAATATTTTTCATATG [CACACA_site4484]  9.6
39. TATAATTATATATATAGTACAGATTTGTTATGTTTA [XGTACX_site7724]  9.59
40. TATTATAAAAATATTCAGATACATTAACTTACTTTT [XGTACX_negctrl_site4]  9.58
41. ACATGCCAAAATCTAATACAATAATAATAAAAAAAA [XGTACX_negctrl_site160]  9.58
42. ATTTGCTCACAAGAAGCACACAAAAAAAGAAAAAAA [CACACA_site9338]  9.57
43. TTTTTTTATACAATTTTATATATTAAATATTATAAT [CACACA_negctrl_site226]  9.53
44. AAGTTTTTTTCTTTTTTTCTCTCTTTTTTTTTTTTT [XGTACX_negctrl_site613]  9.52
45. TATGATTTCACATAATGTACTTGCTAATTCGTGAAT [XGTACX_site1408]  9.52
46. AAAGAAAACGGACTTTGTACTTAAATATAATATAAA [XGTACX_site8585]  9.5
47. GGTTCATTTATATGGAGTACAAAAAATATGTATATA [XGTACX_site8209]  9.5
48. CCCTATATAAATAGCTGTACATTTGAACATGTTCAG [XGTACX_site2187]  9.48
49. TTATGTGATTTTAATTGTACATAAATATTTGTTAAC [XGTACX_site3489]  9.37
50. TTTTCTTTTTTGAACTGTACGCGTAAATTTAAAAAG [XGTACX_site882]  9.36
51. TTTTTTTCTTAAAGATGTACTTTTTAAAAATAATCT [XGTACX_site1429]  9.36
52. TTAATTTCTATATACGCATGTATGAATAAGATATTG [TGCATGCA_site202]  9.36
53. TATTTGTATAAATAAAAATAATATATATCAAATAAC [CACACA_negctrl_site218]  9.31
54. CAAAAAATTTGACGTAGTACTTAAAAAAAAAAAAAA [XGTACX_site4523]  9.25
55. ATTTTTTTATAAGAAAATTTCTAACGTTAAAAAAAA [CACACA_negctrl_site1367]  9.22
56. TATCAATTTTTCTGGCTATCCAATTAGGGGAAGCCA [CACACA_negctrl_site1045]  9.05

Reference: the supplement of paper PMC11417369
